The target in experiment [1] is wild-type HBV core protein (wt-HBc), 1-185 aa, HBV genotype A, subtype adw2 (hepatitis B virus (genotype A, subtype adw2)) (UniProt P03148). As to the kind of experiment: co-IP; HepG2-NTCP cells transfected with wt-HBc, Flag-HGS or Flag-SNF8/EAP30, with or without Flag-Myc-wt-UBE2O; IP with anti-capsid antibodies, Western blot anti-Flag.
For experiment [2] the target is unchanged. Description: co-IP; HepG2-NTCP cells co-transfected with UBE2O-wt or UBE2O-CD and HBc (WT) or Ub-fused HBc; cytoplasmic protein extracts; IP anti-Flag or anti-HBc, Western blot anti-HBc or anti-Flag.
The target in experiment [3] is T1, endogenous ubiquitin-conjugating enzyme E2 O (UBE2O) (human (endogenous in HepG2-NTCP)) (UniProt Q9C0C9).
T1 sequence: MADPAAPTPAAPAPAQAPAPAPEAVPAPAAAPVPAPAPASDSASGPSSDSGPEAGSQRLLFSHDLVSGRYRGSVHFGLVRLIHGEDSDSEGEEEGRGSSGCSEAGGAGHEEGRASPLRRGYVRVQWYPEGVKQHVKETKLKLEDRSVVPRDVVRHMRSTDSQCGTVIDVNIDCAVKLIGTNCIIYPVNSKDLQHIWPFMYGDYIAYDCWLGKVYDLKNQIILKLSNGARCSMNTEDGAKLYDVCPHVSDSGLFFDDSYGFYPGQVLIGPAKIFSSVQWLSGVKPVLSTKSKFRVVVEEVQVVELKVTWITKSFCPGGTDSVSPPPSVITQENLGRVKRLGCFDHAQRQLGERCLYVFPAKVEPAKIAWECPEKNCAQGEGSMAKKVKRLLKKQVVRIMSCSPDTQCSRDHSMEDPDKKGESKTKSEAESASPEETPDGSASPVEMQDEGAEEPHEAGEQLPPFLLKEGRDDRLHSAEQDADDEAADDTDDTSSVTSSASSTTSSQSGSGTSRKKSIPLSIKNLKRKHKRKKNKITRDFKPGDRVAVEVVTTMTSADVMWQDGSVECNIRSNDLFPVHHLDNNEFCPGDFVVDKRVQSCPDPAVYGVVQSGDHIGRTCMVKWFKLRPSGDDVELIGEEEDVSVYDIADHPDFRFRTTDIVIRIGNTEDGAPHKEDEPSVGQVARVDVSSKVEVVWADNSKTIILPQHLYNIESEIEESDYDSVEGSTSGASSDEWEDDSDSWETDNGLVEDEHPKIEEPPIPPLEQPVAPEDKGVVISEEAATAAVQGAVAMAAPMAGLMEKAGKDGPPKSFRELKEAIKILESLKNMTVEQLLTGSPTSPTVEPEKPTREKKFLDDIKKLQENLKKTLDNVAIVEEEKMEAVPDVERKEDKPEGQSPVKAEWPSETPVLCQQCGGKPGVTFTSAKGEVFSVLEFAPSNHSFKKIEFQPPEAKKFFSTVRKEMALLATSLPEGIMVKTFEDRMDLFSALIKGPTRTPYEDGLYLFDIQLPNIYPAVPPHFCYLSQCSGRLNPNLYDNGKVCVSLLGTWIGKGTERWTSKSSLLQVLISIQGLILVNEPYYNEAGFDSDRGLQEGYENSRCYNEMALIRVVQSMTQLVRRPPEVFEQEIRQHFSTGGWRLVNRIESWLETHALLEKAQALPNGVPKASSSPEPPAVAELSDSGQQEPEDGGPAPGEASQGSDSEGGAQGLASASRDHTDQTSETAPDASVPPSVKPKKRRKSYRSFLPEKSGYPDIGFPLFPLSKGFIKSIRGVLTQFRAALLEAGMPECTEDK
Description: co-IP; HBV-infected HepG2-NTCP cells, lysates 6 days post-infection; IP with anti-UBE2O (isotype control antibody beside it), Western blot anti-HBc and anti-UBE2O; both proteins at their level in infected cells.

The chains behind the UniProt entries cited, without tags or fusion partners.
UniProt P03148: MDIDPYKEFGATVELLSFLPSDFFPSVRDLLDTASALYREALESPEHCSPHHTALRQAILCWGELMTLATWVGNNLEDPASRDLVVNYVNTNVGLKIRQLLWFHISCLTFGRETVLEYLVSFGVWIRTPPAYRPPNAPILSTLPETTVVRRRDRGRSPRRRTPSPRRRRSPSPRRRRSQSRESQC
UniProt P08962: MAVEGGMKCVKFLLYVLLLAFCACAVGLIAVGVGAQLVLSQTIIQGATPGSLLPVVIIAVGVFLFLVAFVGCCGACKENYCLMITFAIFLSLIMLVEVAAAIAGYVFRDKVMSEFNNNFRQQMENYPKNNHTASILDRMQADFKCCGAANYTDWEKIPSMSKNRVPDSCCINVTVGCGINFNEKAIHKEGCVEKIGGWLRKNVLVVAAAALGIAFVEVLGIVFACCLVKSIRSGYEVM
UniProt P03146: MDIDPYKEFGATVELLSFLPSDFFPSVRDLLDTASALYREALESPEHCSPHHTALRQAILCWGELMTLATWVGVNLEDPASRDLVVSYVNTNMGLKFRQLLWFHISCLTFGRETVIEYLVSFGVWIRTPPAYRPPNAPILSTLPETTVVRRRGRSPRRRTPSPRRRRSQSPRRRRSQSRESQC
UniProt O14964: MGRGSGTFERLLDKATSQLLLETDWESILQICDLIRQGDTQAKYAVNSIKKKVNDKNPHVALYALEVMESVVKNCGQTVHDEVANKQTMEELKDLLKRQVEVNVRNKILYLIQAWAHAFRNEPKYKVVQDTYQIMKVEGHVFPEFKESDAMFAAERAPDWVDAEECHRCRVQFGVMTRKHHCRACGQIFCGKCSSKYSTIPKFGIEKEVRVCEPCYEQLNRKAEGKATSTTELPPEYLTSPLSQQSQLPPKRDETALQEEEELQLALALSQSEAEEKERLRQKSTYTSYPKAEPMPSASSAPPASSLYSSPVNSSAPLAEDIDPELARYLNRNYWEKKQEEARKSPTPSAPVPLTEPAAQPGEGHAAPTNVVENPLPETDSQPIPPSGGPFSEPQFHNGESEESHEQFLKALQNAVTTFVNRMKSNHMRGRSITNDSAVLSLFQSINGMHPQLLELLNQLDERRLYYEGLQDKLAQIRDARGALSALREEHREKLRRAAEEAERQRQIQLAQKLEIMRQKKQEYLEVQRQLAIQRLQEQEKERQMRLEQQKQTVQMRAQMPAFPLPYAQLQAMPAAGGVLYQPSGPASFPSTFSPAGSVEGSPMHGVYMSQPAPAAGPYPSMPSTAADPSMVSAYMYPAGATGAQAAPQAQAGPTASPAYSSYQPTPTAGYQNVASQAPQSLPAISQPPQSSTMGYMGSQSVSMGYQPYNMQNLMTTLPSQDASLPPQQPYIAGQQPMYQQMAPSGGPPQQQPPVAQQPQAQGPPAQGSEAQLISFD

Experiment [4] deals with CD63 (endogenous) (human (endogenous in HepG2-NTCP)) (UniProt P08962). Description: proximity ligation; Duolink PLA for UBE2O and CD63 in HBV-infected HepG2-NTCP cells, 6 days post-infection; mouse isotype antibody as control.
Experiment [5] deals with HBV core protein (HBc) / capsid produced during HBV infection (hepatitis B virus) (UniProt P03146). Description: proximity ligation; Duolink PLA with mouse anti-capsid (Hyb-3120) and rabbit anti-UBE2O; HBV-infected HepG2-NTCP cells at day 6 post-infection and HepAD38 cells (Tet+ / Tet-); fixed, permeabilised cells.
The target is the same in experiment [6]. As to the kind of experiment: co-IP; HepG2-NTCP cells transfected with Flag-Myc-UBE2O, infected with HBV 2 days later; lysates 6 days post-infection; IP with anti-HBc or anti-capsid (Hyb-3120), Western blot anti-Flag and anti-HBc.
Experiment [7] addresses wild-type HBV core protein (wt-HBc), 1-185 aa, HBV genotype A, subtype adw2 (hepatitis B virus (genotype A, subtype adw2)) (UniProt P03148). Description: co-IP; HepG2-NTCP cells co-transfected with Flag-Myc-UBE2O and wt-HBc or mutants; lysates 2 days post-transfection; IP anti-HBc or anti-Flag, Western blot anti-Flag or anti-HBc.

These are yes or no findings as the source states them, for the method shown. Binding seen in cells or lysates may run through a third protein. Some entries that bind do so weakly or less than the wild type. For some assays here: Sequences can lack the tags named with a protein.

On to “Flag-tagged HGS (from UniProt O14964 1-777)”, for which the binding result in experiment [1] is on record as “binds”. Consider “Flag-Myc-tagged catalytically-defective UBE2O (C1040S) (from UniProt Q9C0C9 1-1292) (enzyme)”, for which, in experiment [2], the binding result is on record as “no binding”. Consider “HBV core protein (HBc) / capsid produced during HBV infection (from UniProt P03146 1-183)”, for which the binding entry in experiment [3] is “binds”.

B1: endogenous ubiquitin-conjugating enzyme E2 O (UBE2O) (enzyme, UniProt Q9C0C9 1-1292)
chain: MADPAAPTPAAPAPAQAPAPAPEAVPAPAAAPVPAPAPASDSASGPSSDSGPEAGSQRLLFSHDLVSGRYRGSVHFGLVRLIHGEDSDSEGEEEGRGSSGCSEAGGAGHEEGRASPLRRGYVRVQWYPEGVKQHVKETKLKLEDRSVVPRDVVRHMRSTDSQCGTVIDVNIDCAVKLIGTNCIIYPVNSKDLQHIWPFMYGDYIAYDCWLGKVYDLKNQIILKLSNGARCSMNTEDGAKLYDVCPHVSDSGLFFDDSYGFYPGQVLIGPAKIFSSVQWLSGVKPVLSTKSKFRVVVEEVQVVELKVTWITKSFCPGGTDSVSPPPSVITQENLGRVKRLGCFDHAQRQLGERCLYVFPAKVEPAKIAWECPEKNCAQGEGSMAKKVKRLLKKQVVRIMSCSPDTQCSRDHSMEDPDKKGESKTKSEAESASPEETPDGSASPVEMQDEGAEEPHEAGEQLPPFLLKEGRDDRLHSAEQDADDEAADDTDDTSSVTSSASSTTSSQSGSGTSRKKSIPLSIKNLKRKHKRKKNKITRDFKPGDRVAVEVVTTMTSADVMWQDGSVECNIRSNDLFPVHHLDNNEFCPGDFVVDKRVQSCPDPAVYGVVQSGDHIGRTCMVKWFKLRPSGDDVELIGEEEDVSVYDIADHPDFRFRTTDIVIRIGNTEDGAPHKEDEPSVGQVARVDVSSKVEVVWADNSKTIILPQHLYNIESEIEESDYDSVEGSTSGASSDEWEDDSDSWETDNGLVEDEHPKIEEPPIPPLEQPVAPEDKGVVISEEAATAAVQGAVAMAAPMAGLMEKAGKDGPPKSFRELKEAIKILESLKNMTVEQLLTGSPTSPTVEPEKPTREKKFLDDIKKLQENLKKTLDNVAIVEEEKMEAVPDVERKEDKPEGQSPVKAEWPSETPVLCQQCGGKPGVTFTSAKGEVFSVLEFAPSNHSFKKIEFQPPEAKKFFSTVRKEMALLATSLPEGIMVKTFEDRMDLFSALIKGPTRTPYEDGLYLFDIQLPNIYPAVPPHFCYLSQCSGRLNPNLYDNGKVCVSLLGTWIGKGTERWTSKSSLLQVLISIQGLILVNEPYYNEAGFDSDRGLQEGYENSRCYNEMALIRVVQSMTQLVRRPPEVFEQEIRQHFSTGGWRLVNRIESWLETHALLEKAQALPNGVPKASSSPEPPAVAELSDSGQQEPEDGGPAPGEASQGSDSEGGAQGLASASRDHTDQTSETAPDASVPPSVKPKKRRKSYRSFLPEKSGYPDIGFPLFPLSKGFIKSIRGVLTQFRAALLEAGMPECTEDK
Take B1: the binding result in experiment [4] and in experiment [5] was “binds” throughout.

B2: Flag-Myc-tagged wild-type UBE2O (enzyme, UniProt Q9C0C9 1-1292)
chain: MADPAAPTPAAPAPAQAPAPAPEAVPAPAAAPVPAPAPASDSASGPSSDSGPEAGSQRLLFSHDLVSGRYRGSVHFGLVRLIHGEDSDSEGEEEGRGSSGCSEAGGAGHEEGRASPLRRGYVRVQWYPEGVKQHVKETKLKLEDRSVVPRDVVRHMRSTDSQCGTVIDVNIDCAVKLIGTNCIIYPVNSKDLQHIWPFMYGDYIAYDCWLGKVYDLKNQIILKLSNGARCSMNTEDGAKLYDVCPHVSDSGLFFDDSYGFYPGQVLIGPAKIFSSVQWLSGVKPVLSTKSKFRVVVEEVQVVELKVTWITKSFCPGGTDSVSPPPSVITQENLGRVKRLGCFDHAQRQLGERCLYVFPAKVEPAKIAWECPEKNCAQGEGSMAKKVKRLLKKQVVRIMSCSPDTQCSRDHSMEDPDKKGESKTKSEAESASPEETPDGSASPVEMQDEGAEEPHEAGEQLPPFLLKEGRDDRLHSAEQDADDEAADDTDDTSSVTSSASSTTSSQSGSGTSRKKSIPLSIKNLKRKHKRKKNKITRDFKPGDRVAVEVVTTMTSADVMWQDGSVECNIRSNDLFPVHHLDNNEFCPGDFVVDKRVQSCPDPAVYGVVQSGDHIGRTCMVKWFKLRPSGDDVELIGEEEDVSVYDIADHPDFRFRTTDIVIRIGNTEDGAPHKEDEPSVGQVARVDVSSKVEVVWADNSKTIILPQHLYNIESEIEESDYDSVEGSTSGASSDEWEDDSDSWETDNGLVEDEHPKIEEPPIPPLEQPVAPEDKGVVISEEAATAAVQGAVAMAAPMAGLMEKAGKDGPPKSFRELKEAIKILESLKNMTVEQLLTGSPTSPTVEPEKPTREKKFLDDIKKLQENLKKTLDNVAIVEEEKMEAVPDVERKEDKPEGQSPVKAEWPSETPVLCQQCGGKPGVTFTSAKGEVFSVLEFAPSNHSFKKIEFQPPEAKKFFSTVRKEMALLATSLPEGIMVKTFEDRMDLFSALIKGPTRTPYEDGLYLFDIQLPNIYPAVPPHFCYLSQCSGRLNPNLYDNGKVCVSLLGTWIGKGTERWTSKSSLLQVLISIQGLILVNEPYYNEAGFDSDRGLQEGYENSRCYNEMALIRVVQSMTQLVRRPPEVFEQEIRQHFSTGGWRLVNRIESWLETHALLEKAQALPNGVPKASSSPEPPAVAELSDSGQQEPEDGGPAPGEASQGSDSEGGAQGLASASRDHTDQTSETAPDASVPPSVKPKKRRKSYRSFLPEKSGYPDIGFPLFPLSKGFIKSIRGVLTQFRAALLEAGMPECTEDK
Regarding B2, the binding result in experiment [6], in experiment [7] and in experiment [2] was “binds” each time.

These data come from paper PMC12554184.
